The values below come from patent publication US20060070135A1, “Compositions and methods for inhibiting the enzymatic activity of PTP-1B” (priority 1998, published 2006).

SMILES strings stand for the structures.

The experiment concerns the target T1, human PTP-1B (PTP-1B-GST fusion protein) (Homo sapiens, UniProt P18031).
T1 sequence (P18031 1-435): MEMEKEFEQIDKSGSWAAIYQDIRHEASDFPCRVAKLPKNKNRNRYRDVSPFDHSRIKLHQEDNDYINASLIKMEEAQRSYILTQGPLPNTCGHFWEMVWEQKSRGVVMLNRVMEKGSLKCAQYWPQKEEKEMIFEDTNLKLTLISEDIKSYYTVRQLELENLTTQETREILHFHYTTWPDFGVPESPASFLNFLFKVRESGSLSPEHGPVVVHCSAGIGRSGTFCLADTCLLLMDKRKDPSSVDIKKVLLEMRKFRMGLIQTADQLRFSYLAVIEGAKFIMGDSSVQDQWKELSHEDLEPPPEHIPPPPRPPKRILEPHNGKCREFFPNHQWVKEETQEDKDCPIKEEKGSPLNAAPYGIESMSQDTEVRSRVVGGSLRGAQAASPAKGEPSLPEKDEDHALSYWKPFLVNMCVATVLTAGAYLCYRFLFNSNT
The experiment can be described thus: biochemical.
As to `O=S(=O)(O)c1cc(N=Nc2ccc(O)cc2)ccc1C=Cc1ccc(N=Nc2ccc(O)cc2)cc1S(=O)(=O)O` [compound 2, 1,2-Bis-[4-(4-hydroxyphenylazo)-2-sulfophenyl]-ethylene], the IC50 (as a rule, the point on the concentration scale where inhibition reaches its midpoint) was 310 nM.
Turning to `S=C1NC(=S)/C(=C\c2ccc(-c3ccc(Br)cc3)o2)S1` [compound 1, 5-[5-(4-bromophenyl)-furan-2-ylmethylene]-thiazolidine-2,4-dithione], half-maximal inhibition (IC50) was put at 5230 nM.
Next, `COc1ccc(-c2csc(N3N=C(c4ccc([N+](=O)[O-])cc4)C(=NNc4ccc(S(N)(=O)=O)cc4)C3=O)n2)cc1` [compound 15, 4-{N′-[1-[4-(4-methoxyphenyl)-thiazol-2-yl]-3-(4-nitrophenyl)-5-oxo-1,5-dihydropyrazol-4-ylidene]-hydrazino}-benzenesulfonamide]: 810 nM.
Then `O=C1C=CC(=O)c2c(O)cccc21` [compound 21, 5-hydroxy-[1,4]-naphthoquinone], with 2210 nM; and `Nc1c(S(=O)(=O)O)cc(S(=O)(=O)O)c2cccc(O)c12` [compound 11, 4-amino-5-hydroxynaphthalene-1,3-disulfonic acid], with 560 nM; and `O=C(/C=C/c1ccco1)Nc1ccc(C(=O)O)cc1NC(=O)/C=C/c1ccco1` [compound 16, 3,4-bis-(3-furan-2-ylacryloylamino)-benzoic acid], with 1000 nM.
`Nc1nnnn1/N=C/c1cc(I)cc(I)c1O` [compound 19, 2-[(5-aminotetrazol-1-ylimino)-methyl]-4,6-diiodophenol] had an IC50 of 1400 nM.
For `O=S(=O)(O)c1cc(O)c2c(/N=N/c3c(S(=O)(=O)O)cc4cc(S(=O)(=O)O)cc(O)c4c3O)cc(S(=O)(=O)O)cc2c1` [compound 3, 3-(4′-hydroxy-2′,7′-disulfonaphth-5′-ylazo)-4,5-dihydroxynaphthalene-2,7-disulfonic acid], the IC50 was found to be 210 nM.
Compound `N#CC(C#N)=C1CSc2sc(=S)sc2SC1` [compound 13, 2-(2-thioxo-[1,3]dithiolo[4,5-b][1,4]dithiepin-6-ylidene)malononitrile] displayed an IC50 of 420 nM.
As to `O=[N+]([O-])c1ccc(O)c(/C=N/N=c2/[nH]c3nonc3nc2Nc2ccc(I)cc2)c1` [compound 20, 2-{[6-(4-iodophenylamino)-4H-[1,2,5]oxadiazolo[3,4-b]pyrazin-5-ylidene]-hydrazonomethyl}-4-nitrophenol], 730 nM corresponded to half-maximal inhibition (IC50).
Then `N#Cc1c(N)c2c(c(O)c1C#N)C(=O)c1ccccc1C2=O` [compound 24, 1-amino-4-hydroxy-9,10-dioxo-dihydroanthracene-2,3-dicarbonitrile], with 830 nM.
Next, `Cc1cc(NS(=O)(=O)c2ccc(NC(=O)c3ccc(C(=O)Nc4ccc(S(=O)(=O)Nc5cc(C)on5)cc4)cc3)cc2)no1` [compound 6]: 1050 nM; `CCc1nnc(NS(=O)(=O)c2ccc(N/C=C(\C#N)c3nc(-c4ccc(Br)cc4)cs3)cc2)s1` [compound 4, 4-{2-[4-(4-bromophenyl)-thiazol-2-yl]-2-cyanovinylamino}-N-(5-ethyl-[1,3,4]thiadiazol-2-yl)-benzenesulfonamide]: 610 nM; `O=C(O)c1ccc(N2C(=O)/C(=C/c3ccc(-c4ccc([N+](=O)[O-])cc4)o3)C=C2c2ccccc2)cc1` [compound 17, 4-{3-[5-(4-nitrophenyl)-furan-2-ylmethylene]-2-oxo-5-phenyl-2,3-dihydropyrrol-1-yl}-benzoic acid]: 790 nM.
As for `O=C(O)c1ccc(Nc2nc(Cl)nc(Cl)n2)cc1-c1c2ccc(=O)cc-2oc2cc(O)ccc12` [compound 9, 4-(4,6-dichloro-[1,3,5]triazin-2-ylamino)-2-(6-hydroxy-3-oxo-3H-xanthen-9-yl)benzoic acid], it took 910 nM to reach half-maximal inhibition (IC50).
Compound `Nc1nonc1/N=N/c1cc(/C=N/c2cccc3nsnc23)c(O)cc1O` [compound 8, 4-(4-aminofurazan-3-ylazo)-6-(benzo[1,2,5]thiadiazol-4-yliminomethyl)-benzene-1,3-diol] registered a half-inhibitory concentration (IC50) of 290 nM.
In turn, `N#C/C(=C\c1cc(Br)c(O)c(Br)c1)c1nc2ccccc2c(=O)[nH]1` [compound 5, 3-(3,5-dibromo-4-hydroxyphenyl)-2-(4-oxo-3,4-dihydroquinazolin-2-yl)-acrylonitrile] returned an IC50 of 370 nM.
The compound `COc1cc(/C=C2/SC(=S)N(c3cccc(Cl)c3)C2=O)cc([N+](=O)[O-])c1O` [compound 22, 3-(3-chlorophenyl)-5-(4-hydroxy-3-methoxy-5-nitrobenzylidene)-2-thioxothiazolidin-4-one] came in with a concentration for half-maximal inhibition (IC50) of 270 nM.
`Nc1nonc1/N=N/c1cc(/C=N/c2ccccc2Br)c(O)cc1O` [compound 7, 4-(4-aminofurazan-3ylazo)-6-[(2-bromophenylimino)-methyl]-benzene-1,3,diol] returned a 50% inhibitory concentration (IC50) of 300 nM.
Next, `CCc1nnc(NS(=O)(=O)c2ccc(NC(=S)NC(=O)/C=C/c3ccc(C(C)C)cc3)cc2)s1` [compound 14, N-(5-ethyl-[1,3,4]thiadiazol-2-yl)-4-{3-[3-(4-isopropylphenyl)-acryloyl]-thioureido}-benzenesulfonamide]: 620 nM.
